{
  "source": "PubChem BioAssay AID1948",
  "about": "(National Center for Advancing Translational Sciences (NCATS), 2009)",
  "note": "Hit rate of the full screen: of about 110,000 compounds, about 20 (0.02%) were called active. Inconclusive results, whose numbers are uncertain, are shown with a selection of clear calls. The call rests on the fitted dose curve; in most records, active means well fitted activation curve with a large enough effect; inconclusive means small, poorly fitted or top-dose-only effect; inactive means no such curve, though single readings can be large or run the other way. Potencies of inconclusive entries are doubtful fits and often do not repeat. Potency means the concentration at half of the fitted maximal effect; tags describe the fitted curve by direction and shape.",
  "data": [
    {"test": "qHTS Assay for Compounds that Induce Erasure of Genomic Imprints;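 on activity change, positive = activation: 0% = negative control wells on the plate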", "details": "mouse ES Peg3-LacZ reporter, beta-gal luminescence, 40 h; activity change, positive = activation: at 10.9 µM (top of the series) unless noted", "how_it_was_run": "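Imprint erasure is scored as LacZ activity from the silenced maternal Peg3 allele in feeder-free female ES cells cultured 40 h with LIF. Luminescence is normalized to in-plate negative controls and fitted to the Hill equation.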", "values": [
      {"smiles": "CC1C2CCC3C4CC=C5CC(N(C)C)CC[C@@]5(C)C4CC[C@@]32CN1C", "note": "(stereo not given in full)", "Potency": "inconclusive: 25.1 µM [activator, single point]"},
      {"smiles": "CCOc1ccccc1Nc1sc(C(=O)c2ccccc2)c(N)c1C(=O)Nc1ccc(F)cc1", "activity change, positive = activation": "inconclusive: 80.4% [activator]"},
      {"smiles": "O=C(CCn1c(=O)c2sccc2n(CC(=O)OCc2ccccc2)c1=O)NCc1ccco1", "Potency": "inconclusive: 31.6 µM [activator, single point]"},
      {"smiles": "Cc1ccc(-n2c3nc(=O)n(C)c(=O)c-3cc3ccccc32)c(C)c1", "activity change, positive = activation": "inconclusive: 46.2% [activator]"},
      {"smiles": "COc1ccc(N2CCN(Cc3nc4c(c(=O)[nH]c(=O)n4C)n3Cc3ccccc3F)CC2)cc1", "activity change, positive = activation": "inconclusive: 33.7% [activator]"},
      {"smiles": "O=C(NCc1ccccn1)c1cn(Cc2ccccc2)nn1", "Potency": "inconclusive: 20 µM [activator, single point]"},
      {"smiles": "COc1ccc(NC(=O)CCn2cnc3onc(-c4ccc(F)cc4)c3c2=O)cc1OC", "activity change, positive = activation": "inconclusive: 35% [activator]"},
      {"smiles": "COc1cc(OC)c2c(=O)c(-c3ccccc3)c(C)oc2c1OC", "Potency": "inconclusive: 6.31 µM [activator, single point]"},
      {"smiles": "CCOC(=O)c1ccccc1NC(=O)Cn1cnc2c(nnn2-c2ccc(C)cc2)c1=O", "Potency": "inconclusive: 31.6 µM [activator, single point]"},
      {"smiles": "CC(=O)NCCNc1ncnc2ccc(-c3ccc4c(c3)OCO4)cc12", "Potency": "inconclusive: 31.6 µM [activator, single point]"},
      {"smiles": "COC(=O)C1OC(=O)C2OC23[C@]2(C)C(OC(C)=O)CC4C(C)(C)C(=O)CC[C@]4(C)C2CC[C@@]13C", "note": "(stereo not given in full)", "Potency": "inconclusive: 3.16 µM [activator, single point]"},
      {"smiles": "COc1ccccc1C1CC(=O)NC(C)=C1C(=O)OCC1CCCO1", "note": "(stereo not given)", "activity change, positive = activation": "inconclusive: 30.2% [activator] [at 60.7 µM]"},
      {"smiles": "COc1cccc(-n2c(SCC(=O)Nc3cccc(Cl)c3)nc3c(oc4ccccc43)c2=O)c1", "Potency": "inactive"},
      {"smiles": "COC(=O)c1ccc2c(=O)n(CC3CCCO3)c(SCC(=O)Nc3ccccc3OC)nc2c1", "note": "(stereo not given)", "Potency": "inactive"},
      {"smiles": "Cn1c(=O)c2c(nc(NCc3ccco3)n2C/C=C/c2ccccc2)n(C)c1=O", "Potency": "inactive"},
      {"smiles": "CCOC(=O)c1c(C)c(C)n2c1NC(=O)C2", "Potency": "inconclusive: 0.02 µM [activator, full curve, poor fit]"},
      {"smiles": "CN(c1cccc(NC(=O)CN2C(=O)c3ccccc3S2(=O)=O)c1)S(C)(=O)=O", "Potency": "inconclusive: 3.98 µM [activator, single point]"},
      {"smiles": "Cc1ccc(OCc2ccoc2C(=O)O)cc1C", "Potency": "inconclusive: 0.0501 µM [activator, single point]"},
      {"smiles": "Cc1ccc(F)cc1NC(=O)c1ccc(Cn2nc(N3CCN(c4ccccc4)CC3)ccc2=O)o1", "Potency": "inactive"},
      {"smiles": "O/N=C1/CCCCC1c1ccccn1", "note": "(stereo not given)", "Potency": "inconclusive: 20 µM [activator, single point]"},
      {"smiles": "CC(=O)NCCNc1nc(-c2cccnc2)nc2ccccc12", "Potency": "inconclusive: 3.16 µM [activator, partial curve]"},
      {"smiles": "O=C(CN(CCc1ccccc1)C(=O)Cn1nnc(-c2cccs2)n1)NCc1ccco1", "Potency": "inactive"},
      {"smiles": "CCOc1cc(C2CC(=O)Nc3cc(C)c(C)cc32)ccc1O", "note": "(stereo not given)", "Potency": "inconclusive: 25.1 µM [activator, single point]"},
      {"smiles": "COc1ccc(NC(=O)c2cnc3cc(C)ccn3c2=O)c(OC)c1", "Potency": "inactive"},
      {"smiles": "CC1CCN(C(c2ccc(F)cc2)c2sc3nc(-c4ccco4)nn3c2O)CC1", "note": "(stereo not given)", "activity change, positive = activation": "inconclusive: 40.2% [activator]"},
      {"smiles": "CC(=O)N1CCCc2cc(S(=O)(=O)Nc3ccc(Cl)cc3F)ccc21", "activity change, positive = activation": "inconclusive: 57.1% [activator]"},
      {"smiles": "COc1ccccc1CNC(=O)C(=O)NCC(c1cccnc1)N1CCN(c2ccccc2)CC1", "note": "(stereo not given)", "activity change, positive = activation": "inconclusive: 40.3% [activator]"},
      {"smiles": "Cc1cc(C)c2nc(SCC(=O)N3CCCCC3)c(C#N)cc2c1", "Potency": "inactive"},
      {"smiles": "Cc1ccc(N2CCN(C(=O)c3nn(C)c4c3CS(=O)(=O)c3ccccc3-4)CC2C)cc1", "note": "(stereo not given)", "activity change, positive = activation": "inconclusive: 35% [activator]"},
      {"smiles": "CC(=O)c1c(O)cc(O)cc1O", "Potency": "inconclusive: 1.26 µM [activator, single point]"},
      {"smiles": "N#Cc1cccc(-c2nc3cnc(N4CCOCC4)nc3n(C3CC3)c2=O)c1", "Potency": "inconclusive: 20 µM [activator, single point]"},
      {"smiles": "C=CCn1c(=O)c2ccccc2n2c(SCC(=O)/C(C#N)=C(\\C)N)nnc12", "Potency": "inconclusive: 6.31 µM [activator, single point]"},
      {"smiles": "O=C(NC1(C(=O)NC2CCCC2)CCCCC1)c1ccc2c(c1)OCO2", "Potency": "inconclusive: 25.1 µM [activator, single point]"},
      {"smiles": "CCCS(=O)(=O)N1CCCC(C(=O)NCCCN(Cc2ccccc2)C(C)C)C1", "note": "(stereo not given)", "Potency": "inconclusive: 6.31 µM [activator, single point]"},
      {"smiles": "Cc1ccccc1NC(=O)CCc1c(C)nn(-c2ccc(N3CCCCC3)nn2)c1C", "activity change, positive = activation": "inconclusive: 70.1% [activator]"},
      {"smiles": "c1ccc2nc(C3=NCCN3)ccc2c1", "Potency": "inconclusive: 5.01 µM [activator, single point]"},
      {"smiles": "O=C(Nc1ccccc1C(F)(F)F)N1CCC(N2CCCCC2)CC1", "Potency": "inconclusive: 0.0501 µM [activator, full curve, poor fit]"},
      {"smiles": "Cc1cccc(-c2nc(CCNC(=O)Cc3ccc(F)cc3)cs2)c1", "activity change, positive = activation": "inconclusive: 35.6% [activator]"},
      {"smiles": "Cc1cc2oc(=O)cc(CN3CCN(Cc4ccccc4)CC3)c2cc1Cl", "Potency": "inactive"},
      {"smiles": "CCc1cnc2c(c1SCC(=O)Nc1ccc(Cl)cc1)c(=O)n(C)c(=O)n2C", "activity change, positive = activation": "inconclusive: 42.7% [activator]"},
      {"smiles": "CN(C)c1ccc(CNC(=O)C2CCCN(S(=O)(=O)c3ccc4c(ccn4C)c3)C2)cc1", "note": "(stereo not given)", "activity change, positive = activation": "inconclusive: 48.3% [activator]"},
      {"smiles": "COc1ccc(C)cc1NC(=O)CN1C(=O)COc2ccc(S(=O)(=O)N3CCOCC3)cc21", "activity change, positive = activation": "inconclusive: 44.2% [activator]"},
      {"smiles": "CCOC(=O)c1cccc(NC(=O)c2cc3cc4cc(OC)ccc4nc3s2)c1", "Potency": "inactive"},
      {"smiles": "CN(C)c1ccc(C(=C2C=CC(=[N+](C)C)C=C2)c2ccc(N(C)C)cc2)cc1", "Potency": "inactive"},
      {"smiles": "O=C(Nc1cc(C(F)(F)F)ccc1N1CCOCC1)C1Cc2ccccc2CN1C(=O)c1ccco1", "note": "(stereo not given)", "Potency": "inactive"},
      {"smiles": "CC(C)CCCC(C)C1CCC2C3CC(O)[C@@]4(O)CC(O)CC[C@@]4(C)C3CC[C@@]12C", "note": "(stereo not given in full)", "Potency": "inactive"},
      {"smiles": "CCc1ccc(-c2nc(CN3CCC(C(=O)NCCN(CC)c4ccccc4)CC3)c(C)o2)cc1", "Potency": "inconclusive: 20 µM [activator, single point]"},
      {"smiles": "Oc1ccc(NCc2ccccc2OCc2ccccc2)cc1", "activity change, positive = activation": "inconclusive: 31.6% [activator]"},
      {"smiles": "COc1ccccc1-c1nn(CCC(=O)Nc2ccccc2)c2nc(C)cc(C)c12", "activity change, positive = activation": "inconclusive: 34.1% [activator]"},
      {"smiles": "CCOc1ccc2sc(NS(=O)(=O)c3ccc(OC)c(OC)c3)nc2c1", "Potency": "inconclusive: 5.01 µM [activator, single point]"},
      {"smiles": "COc1ccc(CNC(=O)c2cc3cccc4c3n2CC(C)S4)cc1OC", "note": "(stereo not given)", "activity change, positive = activation": "inconclusive: 72.7% [activator]"},
      {"smiles": "Cc1cccn2c(=O)c(C(=O)NC(C)c3ccccc3)c(O)nc12", "note": "(stereo not given)", "activity change, positive = activation": "inconclusive: 31.8% [activator]"},
      {"smiles": "O=C1C(=O)N(C2CCNCC2)CCN1Cc1ccccc1", "activity change, positive = activation": "inconclusive: 32.5% [activator]"},
      {"smiles": "COc1ccc(-c2nc(CCNC(=O)c3ccccc3)cs2)cc1OC", "Potency": "inactive"},
      {"smiles": "COc1ccc(C)cc1N(CC(=O)O)S(=O)(=O)c1ccc(C)cc1", "Potency": "inconclusive: 12.6 µM [activator, single point]"},
      {"smiles": "CCCn1nc(CC(=O)O)c2ccccc2c1=O", "Potency": "inconclusive: 31.6 µM [activator, single point]"},
      {"smiles": "CC1CCCN(C(=O)c2cc3c(=O)n(C)c4ccccc4c3s2)C1", "note": "(stereo not given)", "activity change, positive = activation": "inconclusive: 34.3% [activator]"},
      {"smiles": "CCOc1ccccc1CNC(=O)c1cc(-c2ccc(Cl)s2)nc2ccccc12", "Potency": "inactive"},
      {"smiles": "CC(C)(C)C(=O)NC1CC(=O)N(c2ccc3c(c2)OCCO3)C1", "note": "(stereo not given)", "activity change, positive = activation": "inconclusive: 74.1% [activator]"},
      {"smiles": "CCc1ccccc1N1CC(c2nc3ccccc3n2CCCCOc2ccccc2OC)CC1=O", "note": "(stereo not given)", "activity change, positive = activation": "inconclusive: 36.6% [activator]"},
      {"smiles": "O=C(CSc1nnc(-c2ccccc2)c(-c2ccccc2)n1)Nc1ccccc1Cl", "activity change, positive = activation": "inconclusive: 34.9% [activator]"},
      {"smiles": "CCOC(=O)N1CCC(NS(=O)(=O)c2cc3c(cc2C)NC(=O)CO3)CC1", "Potency": "inconclusive: 3.98 µM [activator, single point]"},
      {"smiles": "COc1ccc(OC)c(NC(=O)c2cc(-c3ccc(C)cc3O)n[nH]2)c1", "Potency": "inconclusive: 6.31 µM [activator, single point]"},
      {"smiles": "CCn1c(SCC(=O)Nc2cc(C)on2)nc2c(c1=O)SC(C)C2", "note": "(stereo not given)", "Potency": "inactive"},
      {"smiles": "C=CCSC1=C(C#N)C(c2ccccc2Cl)CC(=O)N1", "note": "(stereo not given)", "Potency": "inactive"},
      {"smiles": "COc1ccc(-c2cc3nc(C)c(CCC(=O)N4CCN(c5cccc(Cl)c5)CC4)c(C)n3n2)c(OC)c1", "activity change, positive = activation": "inconclusive: 30.7% [activator]"},
      {"smiles": "CCOC(=O)c1[nH]c(C)c(C(=O)NCc2ccccn2)c1C", "Potency": "inconclusive: 7.94 µM [activator, partial curve]"},
      {"smiles": "Cc1cc(Cl)c(S(=O)(=O)NCCC(=O)O)cc1OCC(N)=O", "Potency": "inconclusive: 31.6 µM [activator, single point]"},
      {"smiles": "O=C(Cn1c(=O)n(Cc2ccc3c(c2)OCO3)c(=O)c2ccccc21)Nc1cccc(Cl)c1", "activity change, positive = activation": "inconclusive: 46.2% [activator]"},
      {"smiles": "c1cncc(CNc2ncnc3ccc(-c4ccoc4)cc23)c1", "Potency": "inconclusive: 25.1 µM [activator, single point]"}
    ]}
  ]
}
